This is one part of the list. These are noisy estimates, calculated here from bound and input reads.

Here are results for 115 sequences from the BET-seq Pho4 binding data (Le et al. 2018).

The experiment deals with T1, Pho4 (S. cerevisiae) (UniProt P07270).
T1 sequence: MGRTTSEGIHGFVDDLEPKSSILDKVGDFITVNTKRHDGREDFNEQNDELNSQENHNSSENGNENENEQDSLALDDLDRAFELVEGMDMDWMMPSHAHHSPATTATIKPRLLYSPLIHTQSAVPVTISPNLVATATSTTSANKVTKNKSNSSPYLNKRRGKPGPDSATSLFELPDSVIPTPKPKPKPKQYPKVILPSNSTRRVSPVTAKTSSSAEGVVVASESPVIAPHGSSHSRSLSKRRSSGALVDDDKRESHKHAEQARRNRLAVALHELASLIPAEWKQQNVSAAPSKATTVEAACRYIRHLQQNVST
In words: relative binding free energy (BET-seq); higher = weaker binding. As to conditions: reference: library average.
For the sequence GAAGACACGTGTGGTA, the “relative binding free energy” value is 0.01 kcal/mol. As to ATTGTCACGTGTGGCC, the “relative binding free energy” value was determined as 0.22 kcal/mol. In the case of GAAGGCACGTGGGCTA, the “relative binding free energy” value was -0.16 kcal/mol. As for ATAGACACGTGGAATT, the “relative binding free energy” value stood at 0.18 kcal/mol. On to GTTAACACGTGTGGTC, for which the “relative binding free energy” value was 0.14 kcal/mol. The value for TTGGGCACGTGGTGCC was -0.2 kcal/mol; that for TATTGCACGTGTATGC was -0.05 kcal/mol.

With TTGGCCACGTGATTTG, the “relative binding free energy” value was -0.01 kcal/mol. AGGGGCACGTGATAGG: the “relative binding free energy” value is 0.05 kcal/mol. For the sequence TTGGTCACGTGTGCGT, the “relative binding free energy” value is 0.02 kcal/mol. For the sequence AAGTGCACGTGGAATT, the “relative binding free energy” value came to 0.01 kcal/mol. As to TGTAGCACGTGTATAG, the “relative binding free energy” value was -0.05 kcal/mol. The value for TCGGTCACGTGTGAAT was 0.38 kcal/mol; that for TGTAGCACGTGCCGGG was -0.18 kcal/mol; that for TCATGCACGTGGGCGT was -0.17 kcal/mol. For the sequence TGCGTCACGTGGTAAG, the “relative binding free energy” value is 0.1 kcal/mol. For the sequence GGGGCCACGTGCGGTA, the “relative binding free energy” value is -0.24 kcal/mol. On to TTGTGCACGTGCTATG, for which the “relative binding free energy” value was -0.14 kcal/mol. Take GGGTCCACGTGCGGGT: the “relative binding free energy” value was -0.12 kcal/mol. For TCTGGCACGTGTTAAT, the “relative binding free energy” value was -0.03 kcal/mol. Regarding GGATACACGTGCTGTT, the “relative binding free energy” value stood at 0.05 kcal/mol. The value for CTGTACACGTGGGATA was 0.02 kcal/mol; that for AAAGGCACGTGGTGGA was -0.13 kcal/mol.

As to TGCTGCACGTGGGAGG, the “relative binding free energy” value is -0.14 kcal/mol.

AGGGACACGTGGTGAT: the “relative binding free energy” value was -0.13 kcal/mol. As to TAATTCACGTGAGACT, the “relative binding free energy” value was found to be 0.45 kcal/mol.

As for ATATACACGTGGGAGT, the “relative binding free energy” value is -0.14 kcal/mol.

In the case of GTCGGCACGTGGGAGC, the “relative binding free energy” value was found to be 0 kcal/mol.

In the case of AAGAGCACGTGGTAGT, the “relative binding free energy” value was -0.24 kcal/mol. In the case of GATTGCACGTGAGCTT, the “relative binding free energy” value was 0.28 kcal/mol. GTAGTCACGTGGAGAT: the “relative binding free energy” value worked out at 0.06 kcal/mol. For TAGGTCACGTGTTACG, the “relative binding free energy” value was -0.02 kcal/mol. With TTGTGCACGTGCGCGT, the “relative binding free energy” value was -0.16 kcal/mol.

Consider TTGTTCACGTGAAATT, for which the “relative binding free energy” value amounted to 0.37 kcal/mol. Next, GTATTCACGTGTTAGC: 0.25 kcal/mol; CGTAACACGTGGGTGT: -0.25 kcal/mol. For TTCGGCACGTGCATGA, the “relative binding free energy” value is -0.04 kcal/mol. Take ATTAACACGTGGCTGT: the “relative binding free energy” value is -0.18 kcal/mol.

Take GTTTTCACGTGGATCG: the “relative binding free energy” value came to 0.5 kcal/mol. For the sequence TGTGCCACGTGTCTGA, the “relative binding free energy” value was determined as 0.03 kcal/mol.

Take TGTAGCACGTGCGATT: the “relative binding free energy” value worked out at 0.04 kcal/mol. In the case of TTGGACACGTGGGCGA, the “relative binding free energy” value is -0.16 kcal/mol. The value for TTAAGCACGTGTGCAG was -0.11 kcal/mol. Consider AGGGTCACGTGCTAGG, for which the “relative binding free energy” value came to 0.11 kcal/mol. With ATAGGCACGTGCGTTA, the “relative binding free energy” value was -0.21 kcal/mol. Turning to AGCATCACGTGGTGGA, the “relative binding free energy” value came to 0.11 kcal/mol. The value for TATATCACGTGGGGTT was -0.04 kcal/mol; that for TGACTCACGTGTAGTT was 0.12 kcal/mol; that for GATAACACGTGGTTAA was 0.17 kcal/mol. Take ATTGTCACGTGCGATG: the “relative binding free energy” value is -0.02 kcal/mol. For GTTATCACGTGTCATG, the “relative binding free energy” value was 0.24 kcal/mol.

For CTTGTCACGTGAAGAT, the “relative binding free energy” value is 0.24 kcal/mol. For TATTTCACGTGACGGG, the “relative binding free energy” value came to 0.26 kcal/mol. As to GGTTTCACGTGTAGAG, the “relative binding free energy” value came to 0.32 kcal/mol. On to TGAGGCACGTGGGGTT, for which the “relative binding free energy” value is -0.2 kcal/mol. For the sequence AGCCGCACGTGTGGGG, the “relative binding free energy” value is -0.02 kcal/mol.

In the case of TTTGGCACGTGATAGA, the “relative binding free energy” value stood at 0.01 kcal/mol. For the sequence AAGTTCACGTGTTCGA, the “relative binding free energy” value worked out at 0.3 kcal/mol. Next, TAAGCCACGTGGGGGT: -0.2 kcal/mol; TTGGACACGTGTTTAG: 0.18 kcal/mol; TAGAGCACGTGTTGGG: -0.05 kcal/mol. The value for TAAAACACGTGAGTAG was 0.25 kcal/mol. In the case of GTGATCACGTGGTTAT, the “relative binding free energy” value came to 0.1 kcal/mol. For the sequence AGTTGCACGTGTGGGG, the “relative binding free energy” value worked out at 0.06 kcal/mol. Take AAAGGCACGTGTGGGT: the “relative binding free energy” value was -0.05 kcal/mol. For the sequence GTGAGCACGTGTAATA, the “relative binding free energy” value was -0.03 kcal/mol. On to GTCAACACGTGGGGTA, for which the “relative binding free energy” value was -0.12 kcal/mol. Take GGGTACACGTGGGCCT: the “relative binding free energy” value is 0.02 kcal/mol.

With GCGTCCACGTGGGGTG, the “relative binding free energy” value was -0.12 kcal/mol. The value for TTGGTCACGTGGTTCC was -0.07 kcal/mol; that for ACGGGCACGTGGTGCG was -0.34 kcal/mol. The value for AGGATCACGTGGTTCG was 0.07 kcal/mol; that for GTTCGCACGTGTTTAG was 0.14 kcal/mol; that for GGGACCACGTGGCGTG was -0.12 kcal/mol. In the case of AATATCACGTGTATAG, the “relative binding free energy” value worked out at 0.1 kcal/mol. On to TGAGTCACGTGATTAT, for which the “relative binding free energy” value was 0.23 kcal/mol. Take AATGGCACGTGAGACG: the “relative binding free energy” value was 0.04 kcal/mol. In the case of GGATTCACGTGGCGGC, the “relative binding free energy” value is 0.24 kcal/mol.

In the case of TGAAGCACGTGTGGGT, the “relative binding free energy” value came out at 0.01 kcal/mol. On to TACGTCACGTGATTTT, for which the “relative binding free energy” value is 0.2 kcal/mol. TACATCACGTGTGAGG: the “relative binding free energy” value amounted to 0.12 kcal/mol. For the sequence AGAGGCACGTGTAAGG, the “relative binding free energy” value is -0.01 kcal/mol.

Consider GGGTTCACGTGTTATA, for which the “relative binding free energy” value is 0.19 kcal/mol. TAGGACACGTGCAGGT: the “relative binding free energy” value was -0.08 kcal/mol. For AAGGTCACGTGTAAGT, the “relative binding free energy” value is 0.31 kcal/mol. As to TTATTCACGTGCCGTT, the “relative binding free energy” value worked out at 0.14 kcal/mol. Turning to AATATCACGTGATCGG, the “relative binding free energy” value amounted to 0.27 kcal/mol. Next, CGCTTCACGTGGTGTT: 0.09 kcal/mol; GGGAACACGTGTGGTC: 0.11 kcal/mol; ATGGGCACGTGAATGC: 0.09 kcal/mol.

Consider TATGACACGTGGTTCG, for which the “relative binding free energy” value was -0.03 kcal/mol. Next, TGGTGCACGTGGGGAG: -0.15 kcal/mol; TATTGCACGTGTAATT: 0.17 kcal/mol. The value for GTGTCCACGTGTTGAT was 0.07 kcal/mol; that for TGGCGCACGTGTTTTA was 0.09 kcal/mol. As for TGGCGCACGTGCTTGG, the “relative binding free energy” value is -0.14 kcal/mol. Next, AATGGCACGTGGCCGG: -0.25 kcal/mol; AGCGGCACGTGTGCTG: -0.16 kcal/mol; GTGAGCACGTGCGGCT: -0.12 kcal/mol.

Consider TTGCTCACGTGTTTAT, for which the “relative binding free energy” value amounted to 0.27 kcal/mol. For the sequence GTTGGCACGTGTTCGA, the “relative binding free energy” value is -0.08 kcal/mol. Next, TATCACACGTGTGGGA: 0.06 kcal/mol. AACATCACGTGTTGGG: the “relative binding free energy” value amounted to 0.13 kcal/mol. Consider GGTCGCACGTGGTTAG, for which the “relative binding free energy” value was -0.07 kcal/mol. Turning to GTCCGCACGTGTGTGG, the “relative binding free energy” value was -0.12 kcal/mol. Consider TTGTGCACGTGCAGGC, for which the “relative binding free energy” value is 0.03 kcal/mol.

In the case of AAGTCCACGTGGTGTT, the “relative binding free energy” value is -0.03 kcal/mol.

Consider TATGTCACGTGGTTAT, for which the “relative binding free energy” value was determined as 0.01 kcal/mol. With GGTTACACGTGGAAGA, the “relative binding free energy” value was 0.11 kcal/mol. Next, ATATACACGTGAGAGG: 0.13 kcal/mol. For TTTTGCACGTGTAAGC, the “relative binding free energy” value was 0.2 kcal/mol.

Consider CTTGGCACGTGAGGGT, for which the “relative binding free energy” value stood at 0.07 kcal/mol. Next, GGGTACACGTGTGTAG: 0.04 kcal/mol.

Turning to GAGGGCACGTGCGGAA, the “relative binding free energy” value was -0.14 kcal/mol.

Regarding CGGTGCACGTGGGGCC, the “relative binding free energy” value was -0.17 kcal/mol.
